SMILES strings stand for the structures. The whole screen tested about 150,000 compounds, of which about 540 (0.36%) showed an effect of 50% or more. This is one part of the list.

The experiment relates to Plasmodium falciparum. As to the kind of experiment: Primary screen in NF54 nanoGlo assay, in single point, at 2uM, 72h; a lower Z score goes with more inhibition. Type of experiment: functional, Erythrocyte. Particulars: timepoint 72 hour.
The % Inhibition is the relative decrease from the control value, in per cent. Take `C=CCc1ccccc1OCC#CCN1CCOCC1`: the “% Inhibition” value is -14% and the Z score was determined as 1.54.
Regarding `Cc1cc(CC(=O)N2CCN(CC(C)C)[C@@H]3CS(=O)(=O)C[C@@H]32)ccc1F`, the “% Inhibition” value worked out at 9% and the Z score was -0.97.
Turning to `COCCN1C[C@H]2CN(Cc3ccccn3)CCN2C1=O`, the “% Inhibition” value turned out to be 31% and the Z score was -3.54.
In the case of `Cn1cc(CN2CCC3(O)CCCCC3C2)nn1` (stereo unspecified), the “% Inhibition” value was 13% and the Z score was -1.61.
On to `O=C(Cc1cccnc1)N1C[C@H]2CC[C@@H](C1)N(CC1CCC1)C2`, for which the “% Inhibition” value is 7% and the Z score is -0.87.
Turning to `CC(C)(C)OC(=O)NC[C@H](CC(=O)O)C1CCC1`, the “% Inhibition” value was found to be 13% and the Z score is -1.47.
Regarding `O=C(Oc1ccccc1)N1CCN(CCCO)CC1`, the “% Inhibition” value is given as -5% and the Z score turned out to be 0.53.
As for `COc1cccc([C@H]2CCN(C/C=C/c3ccco3)C[C@@H]2O)c1`, the “% Inhibition” value is listed as -4% and the Z score is on record as 0.8.
On to `c1ccc(CN2C3CCC2CNC3)cc1`, for which the “% Inhibition” value was -2% and the Z score came out at 0.25.
For the compound `c1cncc(Cc2n[nH]c(C3(N4CCOCC4)CCCCC3)n2)c1`, the “% Inhibition” value came out at 4% and the Z score is given as -0.69.
The like results for `CC1(C)COC2(CCN(C(=O)C(C)(C)c3cccc(F)c3)CC2)OC1` were, in that order, -17% and 1.99.
The like results for `O=c1nc(O)n(Cc2ccccc2)c(O)c1[C@H]1c2ccccc2Oc2nc(O)n(Cc3ccccc3)c(=O)c21` were, in that order, 13% and -1.18.
For `O=C(NCCc1nc(=O)o[nH]1)C1(c2cccs2)CCCCC1`, the “% Inhibition” value turned out to be 2% and the Z score is -0.31.
The like results for `CCCCN1C(=O)c2ccccc2C(C(=O)N2CCC3(CC2)OCCO3)C1c1cccc(Cl)c1` (stereo unspecified) were, in that order, -25% and 2.21.
For `CC(C)(C)c1cn(C[C@H]2C[C@@H]3CCN2C[C@@H]3C(=O)NC2CCCCC2)nn1`, the “% Inhibition” value is -7% and the Z score stood at 1.1.
`Cn1cccc1C(=O)N1C[C@@H]2CC[C@H]1CN(Cc1ccccn1)C2`: the “% Inhibition” value is listed as -26% and the Z score was 3.36.
In the case of `c1cncc(CNCCc2ccc3[nH]ccc3c2)c1`, the “% Inhibition” value is recorded as -9% and the Z score turned out to be 1.
For `O=C(c1cc(Cl)c(Cl)[nH]1)C(Cl)(Cl)Cl` the same measures were 8% and -0.98.
Consider `COCCOCCN1CCC2(CCCCCC2)C1`, for which the “% Inhibition” value worked out at 2% and the Z score is recorded as -0.29.
Regarding `CC(C)=CCN1C[C@@H]2CC[C@H]1CN(C(=O)c1c[nH]c(=O)c(Cl)c1)C2`, the “% Inhibition” value amounted to 3% and the Z score is reported as -0.49.
As for `CCC1(CC)C(=O)NC(=NCCCO)NC1=O`, the “% Inhibition” value is 1% and the Z score is recorded as -0.1.
Turning to `O=c1c2ccccc2nc(-c2cccnc2)n1-c1cccnc1`, the “% Inhibition” value is -11% and the Z score is on record as 1.25.
Consider `NC1(c2nc(-c3ccsc3)no2)CCCCC1`, for which the “% Inhibition” value is recorded as -1% and the Z score was found to be 0.14.
The like results for `O=C([C@@H]1CC(c2ccc(Cl)c(Cl)c2)=NO1)N1CCC2(CC1)OCCO2` were, in that order, 4% and -0.58.
As to `Cn1ncc2c1CCCN(c1ccc(C#N)c(Br)c1)C2`, the “% Inhibition” value is on record as 5% and the Z score was -0.7.
In the case of `CC(C)(C)NC(=O)C1CC2CCCCC2CN1` (stereo unspecified), the “% Inhibition” value came out at 36% and the Z score is on record as -4.67.
In the case of `CCOC(=O)N1[C@@H]2CC[C@H]1c1c(nc(N)c(C#N)c1-c1ccccc1OC)C2`, the “% Inhibition” value is 0% and the Z score was -0.02.
The like results for `O=C(Nc1ccc(-c2noc(=O)[nH]2)cc1)C1(c2cccc(F)c2)CCC1` were, in that order, -4% and 0.57.
For the compound `COc1ccc(CN2[C@@H]3CC[C@H]2C[C@@H](O)C3)cc1F`, the “% Inhibition” value is recorded as -3% and the Z score turned out to be 0.39.
For `COc1ccccc1[C@@H]1CC(c2c(O)n(C)c(=O)n(C)c2=O)=NN1C(C)=O`, the “% Inhibition” value is recorded as -16% and the Z score came out at 2.23.
`COc1cccc([C@H]2CN(C(=O)c3cnc(C)nc3)[C@@H]3C4CCN(CC4)[C@H]23)c1`: the “% Inhibition” value is given as -6% and the Z score is reported as 0.87.
As for `CCOc1ccc(Cc2c(O)nc(O)nc2O)cc1`, the “% Inhibition” value stood at 2% and the Z score is -0.33.
The like results for `Cc1nn(C)c(C)c1CN1C2CCC1C(C(=O)OC(C)(C)C)C2` (stereo unspecified) were, in that order, 2% and -0.29.
Take `O=C(c1ccsc1)N1CCN(CCF)CC1`: the “% Inhibition” value was found to be 4% and the Z score was -0.5.
For `CC(O)(CN1C2CCC1CC(=O)NC2)C(F)(F)F` (stereo unspecified) the same measures were 1% and -0.19.
With `CCC(CC)c1cc([C@H]2CN3CC[C@H]2C[C@@H]3CNS(=O)(=O)Cc2ccccc2)nc(-c2ccncc2)n1`, the “% Inhibition” value was determined as 75% and the Z score was -9.43.
For `COc1ccc2c(c1)C[C@H](NC(=O)N1CCC3(CC1)OCCO3)CO2` the same measures were -13% and 1.8.
For `Cc1nc(CN2C3CCC2CC(C)(O)C3)oc1C` (stereo unspecified) the same measures were -11% and 1.7.
As for `CCCNc1ncc(CN2CCNC(=O)C23CCCC3)cn1`, the “% Inhibition” value is recorded as -9% and the Z score was 1.25.
Take `CC(C)N1CCN(c2ccnc(C3CC3)n2)CC1`: the “% Inhibition” value worked out at 3% and the Z score is -0.47.
As to `C[C@@H](Cc1ccc(Cl)cc1)NCc1nc(C(F)F)no1`, the “% Inhibition” value was -7% and the Z score is recorded as 1.2.
For `COc1ccc2c(c1)OC[C@@]1(C(=O)O)CN(C(=O)c3cc(C)ccc3C)C[C@@H]21` the same measures were -8% and 1.29.
Take `COCCn1ccc(C(=O)NC(C)(C)c2ccc(F)cc2Cl)n1`: the “% Inhibition” value was 4% and the Z score is reported as -0.52.
